Data published in PubChem BioAssay (Tox21).
Inconclusive means that the source gave no clear call. Such entries were picked first, then a sample of the others. For some of these results: A potency beside an inconclusive call is a rough fit, not a confirmed value. Activity calls are given as the source filed them. Unless noted, calls come from the whole dose curve; as a rule, active = well fitted curve in the direction sought with a large enough effect in the repeat runs; inconclusive = weak or mixed curves; inactive = no such curve, though single readings can be large; an effect the other way counts as inactive or inconclusive.

How the values were obtained:
[1] = qHTS assay to identify small molecule that activate the aryl hydrocarbon receptor (AhR) signaling pathway - cell viability counter screen (AID 743086); note: nearly all actives have a fitted effect of over 45% in size; note: potency is the fitted concentration of half-maximal effect;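 for viability change, negative = cytotoxic: HepG2 liver cells carrying the AhR DRE luciferase reporter; % is set by controls: 0 for no effect and ±100 for the full control effect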
Procedure, shortened: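 HepG2-AhR-luc (HG2L7.5c1) cells, 4000/well, were preincubated 5 h at 37C, exposed to compound in qHTS format for 24 hr at 37C, then given CellTiter-Fluor for 30 min; viability was read as fluorescence in the reporter wells.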

[2] = biological target: Peroxisome proliferator-activated receptor gamma (Homo sapiens) (UniProt P37231); experiment: qHTS assay to identify small molecule antagonists of the peroxisome proliferator-activated receptor gamma (PPARg) signaling pathway (AID 743191; calls by dose curve; note: nearly all actives have a fitted effect of over 30% in size; note: potency is the fitted concentration of half-maximal effect; for ratio activity, negative = inhibition: % is set by controls: 0 for no effect and ±100 for the full control effect); conditions: HEK293H PPARg-UAS-bla, beta-lactamase ratio, antagonist, 17 h
Procedure, shortened: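 GeneBLAzer PPARg UAS-bla HEK293H cells carrying a UAS-driven beta-lactamase reporter were plated at 3000 cells/well, preincubated 5 h at 37C, then given compound for 17 h at 37C; LiveBLAzer B/G FRET substrate was read after 1 h at room temperature.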

[3] = qHTS assay for small molecule agonists of the antioxidant response element (ARE) signaling pathway (AID 743202; active = well fitted activation curve with a large enough effect in the signal ratio in the repeat runs, not every such curve was filed as active; inconclusive = weak or mixed curves, or effect the other way; inactive = no such curve, though single readings can be large or run the other way; the % refers to the signal ratio; note: potency is the fitted concentration of half-maximal effect; for activation: % is set by controls: 0 for no effect and ±100 for the full control effect); conditions: HepG2 ARE-bla reporter, beta-lactamase FRET, 16 h; activation: at 73.3 µM (top of the series) unless noted
Procedure, shortened: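 Following a 16 h, 37 C exposure of reporter HepG2 cells (ARE-driven beta-lactamase, 2,000 cells/well) to compounds, FRET substrate was applied for 2 h at room temperature and fluorescence intensity recorded.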

[4] = qHTS assay for small molecule agonists of the antioxidant response element (ARE) signaling pathway - cell viability counter screen (AID 743203; calls by dose curve; note: nearly all actives have a fitted effect of over 55% in size; note: potency is the fitted concentration of half-maximal effect); conditions: ARE-bla HepG2 viability, CellTiter-Glo luminescence, 16 h; viability change, negative = cytotoxic: at 73.3 µM (top of the series)
Procedure, shortened: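 Measured in the same wells as the beta-lactamase ARE reporter, this read-out is CellTiter-Glo luminescence from HepG2 ARE-bla cells given compounds for 16 hrs.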

[5] = qHTS assay to identify small molecule agonists of the peroxisome proliferator-activated receptor delta (PPARd) signaling pathway - cell viability counter screen (AID 743211); conditions: PPARd-bla HEK293H viability, CellTiter-Glo luminescence, 17 h; activity change, negative = cytotoxicity: at 62.6 µM (top of the series); note: nearly all actives have a fitted effect of over 55% in size; note: potency is the fitted concentration of half-maximal effect
Procedure, shortened: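 Tox21 library compounds, delivered in DMSO, were incubated 17 h with PPARd-bla HEK293H cells; cytotoxicity was taken from CellTiter-Glo luminescence read 30 min after reagent addition.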

[6] = qHTS assay to identify small molecule antagonists of the peroxisome proliferator-activated receptor gamma (PPARg) signaling pathway - cell viability counter screen (AID 743194); conditions: PPARg-bla HEK293H viability, CellTiter-Glo luminescence, 17 h, co-treated with 50 nM rosiglitazone; activity change, negative = cytotoxicity: at 62.6 µM (top of the series) unless noted; note: nearly all actives have a fitted effect of over 55% in size; note: potency is the fitted concentration of half-maximal effect; for activity change, negative = cytotoxicity: % is set by controls: 0 for no effect and ±100 for the full control effect
Procedure, shortened: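 PPARg-UAS-bla HEK293H cells were plated, rested 5 h at 37 C, then treated with compounds plus rosiglitazone (50 nM final) for 17 h at 37 C; viability was then read by CellTiter-Glo luminescence after 30 min at room temperature.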

[7] = qHTS assay for small molecule activators of the heat shock response signaling pathway - cell viability counter screen (AID 743209); conditions: HSE-bla HeLa viability, CellTiter-Glo luminescence, 5 h; activity change, negative = cytotoxicity: at 62.6 µM (top of the series) unless noted; note: % is set by controls: 0 for no effect and ±100 for the full control effect; nearly all actives have a fitted effect of over 50% in size
Procedure, shortened: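 Same-well multiplex: after 2.5 h room-temperature incubation with LiveBLAzer B/G substrate and fluorescence reading, CellTiter-Glo reagent was added to HSE-bla HeLa cells that had received compound for 5 h at 37 C; luminescence read after 30 min.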

[8] = qHTS assay for small molecule activators of the heat shock response signaling pathway (AID 743210; active = well fitted activation curve with a large enough effect in the signal ratio in the repeat runs, with a control signal flat, not every such curve was filed as active; inconclusive = weak or mixed curves; the % refers to the signal ratio; note: potency is the fitted concentration of half-maximal effect); conditions: HeLa HSE-bla reporter, beta-lactamase ratio, 5 h; activation: at 62.6 µM (top of the series) unless noted
Procedure, shortened: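 Heat shock element–beta-lactamase HeLa reporter cells; qHTS with compounds for 5 h at 37 C; detection by FRET substrate fluorescence after 2.5 h at RT.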

[9] = biological target: Peroxisome proliferator-activated receptor gamma (Homo sapiens) (UniProt P37231); experiment: qHTS assay to identify small molecule agonists of the peroxisome proliferator-activated receptor gamma (PPARg) signaling pathway (AID 743094; active = well fitted activation curve with a large enough effect in the signal ratio in the repeat runs, not every such curve was filed as active; inconclusive = weak or mixed curves, or effect the other way; inactive = no such curve, though single readings can be large or run the other way; the % refers to the signal ratio; note: potency is the fitted concentration of half-maximal effect); conditions: HEK293H PPARg-UAS-bla, beta-lactamase FRET ratio, 17 h; activation: at 57 µM (top of the series) unless noted
Procedure, shortened: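 Cell-based bla reporter, HEK293H background, PPARg-driven UAS. Pre-incubation 5 h, 37C, 5% CO2. Compound 17 h, 37C. Substrate 1 h RT; fluorescence.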

[10] = ratio activity, negative = inhibition: at 62.6 µM (top of the series) unless noted
Tags give direction and shape of the fitted curve or compound fluorescence and quenching.

Chain of UniProt P37231 (P37231 whole entry, looked up): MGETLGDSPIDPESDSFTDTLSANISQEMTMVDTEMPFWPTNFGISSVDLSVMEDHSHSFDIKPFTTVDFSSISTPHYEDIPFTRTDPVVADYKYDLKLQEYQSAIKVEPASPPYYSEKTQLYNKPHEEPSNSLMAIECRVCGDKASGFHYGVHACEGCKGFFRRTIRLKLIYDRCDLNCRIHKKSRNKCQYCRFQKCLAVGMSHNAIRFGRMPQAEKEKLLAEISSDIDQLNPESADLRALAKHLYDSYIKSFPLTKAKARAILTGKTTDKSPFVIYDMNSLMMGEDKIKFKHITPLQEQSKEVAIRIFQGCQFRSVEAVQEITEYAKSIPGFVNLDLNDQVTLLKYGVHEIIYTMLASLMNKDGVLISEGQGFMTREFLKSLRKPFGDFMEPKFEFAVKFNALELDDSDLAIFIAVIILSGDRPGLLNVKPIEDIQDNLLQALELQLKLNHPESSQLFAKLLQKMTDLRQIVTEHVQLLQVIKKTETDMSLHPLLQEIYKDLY

CCc1nn(CCCN2CCN(c3cccc(Cl)c3)CC2)c(=O)n1CCOc1ccccc1
Potency [1]: inconclusive: 13.3 µM [falling, single point]
ratio activity, negative = inhibition [2, 10]: inconclusive: -29.8%
Potency [3]: inconclusive: 33.5 µM
Potency [4]: inconclusive: 33.5 µM [cytotoxic, single point]
Potency [5]: inconclusive: 29.8 µM [cytotoxic, single point]

Cc1cc(C)c(S(=O)(=O)O)cc1N=Nc1cc(S(=O)(=O)O)c2ccccc2c1O
Potency [1]: active: 27.3 µM
ratio activity, negative = inhibition [2, 10]: inconclusive: 3.57%
activation [3]: inconclusive: 10.8%

O=C(O)Cc1ccc(Cl)cc1Cl
Potency [1]: inconclusive: 61.1 µM [rising, partial curve, poor fit]
Potency [2, 10]: inactive
Potency [6]: inactive

C1COC(NC(C2CC2)C2CC2)=N1
Potency [1]: inactive
Potency [2, 10]: inactive

CN(C)CC/C=C1\c2ccccc2Sc2ccc(Cl)cc21
Potency [1]: inconclusive: 33.5 µM [falling, single point]
Potency [2, 10]: inconclusive: 11.9 µM [inhibitor, partial curve]
Potency [6]: inconclusive: 33.5 µM [cytotoxic, single point]
Potency [3]: inconclusive: 33.5 µM
Potency [7]: inactive

NNc1nc(-c2ccccc2)cs1
Potency [1]: inactive
Potency [2, 10]: active: 0.504 µM
Potency [3]: inconclusive: 8.88 µM [rising, full curve]
Potency [8]: inconclusive: 41.6 µM
Potency [5]: inconclusive: 44.9 µM [cytotoxic, partial curve]

NS(=O)(=O)c1ccc(NC(=O)CCC(=O)O)cc1
Potency [1]: inactive
ratio activity, negative = inhibition [2, 10]: inconclusive: 6.31%

NCC1(Cc2noc(=O)[nH]2)CCCCC1
Potency [1]: inactive
ratio activity, negative = inhibition [2, 10]: inconclusive: -5.21%
Potency [3]: inconclusive: 27.3 µM

COCCOC(=O)C1=C(C)NC(C)=C(C(=O)OC/C=C/c2ccccc2)C1c1cccc([N+](=O)[O-])c1 (stereo not drawn)
Potency [1]: inconclusive: 33.5 µM [falling, single point]
Potency [9]: inconclusive: 13.4 µM [inhibitor, full curve]
Potency [2, 10]: active: 18.8 µM
Potency [3]: inconclusive: 29.8 µM [rising, single point]
Potency [5]: inconclusive: 13.3 µM [cytotoxic, single point]

CCCCCCCCCCCCCO
Potency [1]: inconclusive: 22.5 µM [rising, partial curve, poor fit]
ratio activity, negative = inhibition ([2]; at 81.1 µM (top of the series)): inactive: 16.2%
ratio activity, negative = inhibition [2, 10]: inconclusive: 8.32% [at 81.1 µM]
Potency [6]: inactive
Potency [3]: inactive

c1ccc2ccccc2c1
Potency [1]: inactive
Potency [2, 10]: inactive

COc1cc(S(=O)(=O)O)c(C)cc1N=Nc1c(O)ccc2cc(S(=O)(=O)O)ccc12
Potency [1]: active: 9.69 µM
Potency [2, 10]: inactive

CCC(=O)c1ccc2c(c1)N(CCCN(C)C)c1ccccc1S2
Potency [1]: inconclusive: 23.7 µM [falling, partial curve]
Potency [2, 10]: inconclusive: 13.3 µM [inhibitor, partial curve, poor fit]
Potency [3]: inconclusive: 21.1 µM [falling, partial curve]
viability change, negative = cytotoxic [4]: inconclusive: -42.3% [cytotoxic]
activity change, negative = cytotoxicity [7]: inconclusive: -19.2%

c1ccc(CN(CC2=NCCN2)c2ccccc2)cc1
Potency [1]: inconclusive: 29.8 µM [falling, partial curve, poor fit]
ratio activity, negative = inhibition [2, 10]: inconclusive: -0.733%
Potency [3]: inconclusive: 11.9 µM [falling, partial curve, poor fit]
Potency [7]: inactive
Potency [5]: inconclusive: 23.7 µM [cytotoxic, partial curve, poor fit]

COc1ccc(N)c([N+](=O)[O-])c1
Potency [1]: inconclusive: 34.4 µM [falling, partial curve, poor fit]
ratio activity, negative = inhibition [2, 10]: inconclusive: -21.1%
Potency [3]: inactive

C[C@H]1c2cccc(O)c2C(O)=C2C(=O)[C@]3(O)C(O)=C(C(N)=O)C(=O)[C@@H](N(C)C)[C@@H]3[C@@H](O)[C@@H]21
Potency [1]: inactive
Potency [2, 10]: inconclusive: 29.8 µM
Potency [3]: inconclusive: 29.8 µM

COc1cc(S(=O)(=O)Nc2ccccc2)c(OC)cc1N
Potency [1]: inactive
Potency [2, 10]: inactive
Potency [6]: inactive
activation [3]: inconclusive: 16.1%
Potency [5]: inactive

CC1C(C)(C)C2=C(C(=O)CCC2)C1(C)C (stereo not drawn)
Potency [1]: inactive
Potency [2, 10]: inactive
Potency [6]: inactive
activation [3]: inconclusive: 5.54%
Potency [8]: inactive

Fc1ccccc1[C@@H](F)COC1CCC(Nc2ncnc3[nH]ncc23)CC1 (stereo partly drawn)
Potency [1]: active: 30.6 µM
Potency [9]: inconclusive: 49 µM [rising, single point]
Potency [6]: inconclusive: 54.9 µM [cytotoxic, single point]
Potency [3]: inconclusive: 15.4 µM [rising, partial curve, poor fit]
activity change, negative = cytotoxicity [5]: inconclusive: -41.9% [cytotoxic]
